Over roughly 2,300 sequences, “median log2 fold change of GCK-ALFA target abundance (FLAG IP / Myc IP barcode read proportion)” has its median near 0.095; the lowest 2% begin near -0.47. This is one part of the list.
B1: LC3A_132_279 (protein)
chain: EEKKKKEAIEKVKKLAKEAEKNIDNEEKVEKLIKELEKYLEKVEKEESPEVQAAVFETAAEEYEKLAKLAEAAGKEEIALELDSKAIEYASRSLRAKELI
B2: LC3A_3_1633 (protein)
chain: MEEKVEERLKKLKEAGASEETLKAFRETAEKLIERGYYKALETLIEETEKLLDLPDELLLDFFKEVLEYLETNDDDEETVIEKIKEIARTTRNEGEIIEL
B3: LC3A_3_1797 (protein)
chain: SEEKLEKLLKELKEAGKSEETIEAARKTLEALIEKGYEEAFETFVEELRELKDIPDEILLEMLKEVLELIENEDLSEEELTEEIKELARLAKLESEIEEL
B4: LC3A_28_970 (protein)
chain: MDIDEELEKALEKAREAREKGEPTVITIKVPGTTDEEDTEKVIETLEEIAEILKDIPGAAIIIDIDGDVDEELITKLMNKAEEIEKKYPNITVIFALDEK
B5: LC3A_13_337 (protein)
chain: TVKLEVETAEELREKGTAALEAHPGETIEITATVKDFEEAEKIAEEVGKLIDLAAEKGNSLVITIKGKRDEVLYASLLIGSEYYEKINEVDVTINEEILP
B6: LC3A_free_8_2496 (protein)
chain: SRQETVNEILKKIDEAEKRHVELAKKLGLSELDILDLELEYGSIKSSIISNSDKPMEEIIKTIKEDMERLIKLAAELSPELAEKAKEDLKEILELLEKKK
B7: LC3A_free_46_2310 (protein)
chain: VKAEISIDLLHDDEEVLKAAVEEIVKSIKEIAEKYGLEVEIKVSFSKDPDGSYFAHIDIILKGETEETVKKAVNEIIDEIDKIAEKYGVSYIISVEIEKE
B8: LC3A_free_8_2544 (protein)
chain: SLQELIQEASEAVDKAEEEVEKKAKELGLDPLDINYLLLLLGEAAIEIQEAATDNFEEEFNEALKTLKEAEKEAKKIHPEIAAIVAKLVAKLEEIKKKAE
B9: LC3A_free_39_2275 (protein)
chain: SAAERAAALARAEALAASLSPEGAALLRRIMAEFADDPEAIRRITEALERAKAEGADMLEILKRALAVVEEGRAAGLSREEIAERVLEEIEDLINLIPLD
B10: LC3A_59_2018 (protein)
chain: SEELEALRERLREAVDDIDAFVAIVREGLERFRDDPERVRALLRAAMDVIVEELGMDPEEAEKTLAEMLAIWETEPDKEEAIARVTELVRDTLLLTPIEE
B11: LC3A_free_8_2490 (protein)
chain: KSQELANKGSQLLDEMEEEIEKEAKKLGASELDILDLSLLIGSTIAEAYSLSDKSPEEIIEKIKEGLKELIEEAKKISEELAKKVEELSKEILKELEELK
B12: LC3A_28_947 (protein)
chain: MSTEEEVEEQLKKAKEAAKKKEPVVITLTVTGEDSQEEVQLVIEGMKEIAELLKDIKGSAIIVDVEAGVPQEHVDLIADEGEEIEKKYPNINVIIALDED
B13: LC3A_127_171 (protein)
chain: ELEELLEEALEVAEELSELLEEEDYDFEEIEELTRELLELAKKILELDPRAEDALETAEEMLELLEEMKEADEAEQKELKEHLLMLTEGLIIELLGLQLK
B14: LC3A_28_1175 (protein)
chain: SELDKSIEKALAEAKEAAEKGEAAAVTITVPGTATEEEIEKVIKAIYEIAELLKGIPGAAIIVDIESGVSQENIDKLLEAGEEVEEKYPDVNVIFALDED
B15: LC3A_free_0_2095 (protein)
chain: KTTVVEVVMISDKEVSEEDVKKIKERLEKLAKEISKKYGAKVEVKVSKVDGRTVFTVKVKKEGLSIDEGLEIAREIADLLEEEAKELGIDATIYESVYYE
B16: LC3A_147_389 (protein)
chain: YIVNVDIDILTKNAEEEVIKSFEELKKELEKKGYKVKLEIETEKLDENTTYIDINITIEAPTLEKAEEAANLVLDHVDELEEKLKDKILGSLISVEIEEK
B17: LC3A_3_1451 (protein)
chain: GEELIEEAEKILKEFGRSEETIEAARELLEALKEKGYEEAMKTFVEELKKLKDVSSEIVLAMLKEIKHVVETEDLSEEEVVEVIKSEAAAAKSEQEIEEL
B18: LC3A_28_746 (protein)
chain: MTIAEQIAEAKAAAKAAAAAGESQVITITVPGTADQADIDRVIAGMKEIAEILKDVKDQAIVIDLDGQLPQEHQQRLMDAAEEIEKKYPNVTVIIALDEE
B19: LC3A_3_1739 (protein)
chain: MEEKLAKARKELEALGLSPEVVAAALKVVEALLKKGYEKAVEVLLKLLKELKDLPDEILLAMLDDILARVETEDLSEEEVIKYIKEEARIARSEAEIEEL

Each binder was assayed against MAP1LC3A, Q9H492 (assay: median log2 fold change of GCK-ALFA target abundance (FLAG IP / Myc IP barcode read proportion) (log2 ratio); each designed protein is fused to an ALFA-tag nanobody in HEK293 cells to bring the named protein to FLAG-tagged glucokinase (GCK); Myc marks an untargeted standard; higher = target protein stabilised (more abundant)). Details: target protein: 3xFLAG-MCP-GCK-ALFA reporter; HEK293 landing pad (RPLP).
Procedure, shortened: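 Binders fused to an ALFA nanobody were recombined as a library into HEK293 landing-pad cells, which were induced with 2 μg mL^−1 doxycycline and then transfected to express a FLAG-tagged target and a Myc-tagged standard. After 48 h, circular RNA barcodes recovered by anti-FLAG and anti-Myc immunoprecipitation of lysates were reverse transcribed, amplified and sequenced. Each binder's target abundance is the median log2 ratio of FLAG to Myc barcode read proportions, from barcodes present at ≥10^−7 in both replicates, binders carrying ≥3 barcodes per replicate, a 10^−6 pseudocount and pooled replicates.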
In the case of B1, the “median log2 fold change” value is reported as 0.341. In the case of B2, the “median log2 fold change” value is reported as 0.174. With B3 the “median log2 fold change” value was -0.12. For B4, the “median log2 fold change” value was 0.154. B5 was tested, and the “median log2 fold change” value was 0.13. For B6, the “median log2 fold change” value was 0.426. In the case of B7, the “median log2 fold change” value is reported as 0.181. In the case of B8, the “median log2 fold change” value is reported as -0.0689. For B9, the “median log2 fold change” value was -0.12. In the case of B10, the “median log2 fold change” value is reported as -0.587. For B11, the “median log2 fold change” value was 0.119. In the case of B12, the “median log2 fold change” value is reported as 0.0563. With B13 the “median log2 fold change” value was -0.77. B14 was tested, and the “median log2 fold change” value was -0.346. For B15, the “median log2 fold change” value was -0.251. With B16 the “median log2 fold change” value was -0.162. B17 was tested, and the “median log2 fold change” value was 0.4. In the case of B18, the “median log2 fold change” value is reported as 0.229. B19 was tested, and the “median log2 fold change” value was 0.29.

Reference: the supplement of paper PMC12632987
